In PubChem BioAssay AID1346428 (National Center for Advancing Translational Sciences (NCATS), 2018) one finds activation data, which are given here for 52 compounds.

Each structure is given as a SMILES string. The whole screen tested about 48,000 compounds, of which about 1,200 (2.5%) were called active. Roughly 2% stayed inconclusive and do not appear here.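 Rule for the calls: active = activation of at least 60% and not above a set upper limit (about 1 call in 100 departs from these limits); inconclusive = activation of 40% to 60%, or above that upper limit; inactive = activation under 40%.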 This is one part of the list.

In the assay the target is Probable G-protein coupled receptor 32 (Homo sapiens) (UniProt O75388). Briefly: qHTS for Agonists of Human Resolvin D1 Receptor DRV1. The conditions noted are these: CHO-K1 GPR32 beta-arrestin PathHunter luminescence, 90 min; at 76.9 µM; stronger effect = higher value; zero percent set by DMSO-only wells. The method in brief: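 Using DMSO wells as EC0, agonist-induced signal was taken as chemiluminescence from beta-Gal reconstituted upon beta-arrestin recruitment to GPR32 in CHO-K1 cells after 90 min compound treatment.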
Chain of UniProt O75388 (O75388 whole entry, looked up): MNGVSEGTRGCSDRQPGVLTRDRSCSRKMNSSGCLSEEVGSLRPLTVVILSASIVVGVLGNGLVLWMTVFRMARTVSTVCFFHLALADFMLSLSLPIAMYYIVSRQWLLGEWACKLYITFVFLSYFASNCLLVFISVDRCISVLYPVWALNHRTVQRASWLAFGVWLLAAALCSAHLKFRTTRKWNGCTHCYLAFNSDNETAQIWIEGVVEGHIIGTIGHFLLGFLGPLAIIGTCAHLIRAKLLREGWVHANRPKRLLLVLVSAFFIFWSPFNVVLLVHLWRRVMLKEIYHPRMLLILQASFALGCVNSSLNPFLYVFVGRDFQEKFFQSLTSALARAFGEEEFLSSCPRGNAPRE
A general note: In qHTS, concentration-response curves come from the screen itself.
With `Cc1nc2c(c(C)nn2C(C)(C)C)c(C)c1CCC(=O)Nc1ccc(Br)cc1Br`, the activation is inactive: -29%. Under `CNCC[C@H](Oc1cccc2ccccc12)c1cccs1` stands active: 99.1%; under `O=C(CCCN1CCC(O)(c2ccc(Br)cc2)CC1)c1ccc(F)cc1`, inactive: 7.39%. Under `Cc1ccc(NC(=O)[C@@H](c2ccccc2)N2Cc3ccccc3C2=O)cc1F` stands inactive: -9.61%; under `CCC(=O)Nc1cc2nn(-c3ccc(C)cc3)nc2cc1C`, inactive: -72.4%; under `CCCc1nn2c(=O)cc(COC(=O)c3ccco3)nc2s1`, inactive: 7.4%.

With `COc1ccc(CCNC(=O)Cn2c(=O)c3cccn3c3ccccc32)cc1OC`, the activation was inactive: -8.67%.

In the case of `CC(=O)Nc1c(C)nn(-c2ccccc2)c1N1CCC(C(=O)Nc2cccc(C(F)(F)F)c2)CC1`, the activation is inactive: -11.9%.

Take `CCCCOc1ccccc1C1CC(=O)Nc2cc(OC)c(OC)cc21` (configuration not stated): the activation is inactive: -11.6%. On to `CCOC(=O)Cn1c(=O)n(CC2CCCO2)c2nc(-c3ccc(CC)cc3)nc(C(N)=O)c21` (configuration not stated), for which the activation is inactive: -6.25%. Then `O=C(CSc1ncc2c(n1)-c1ccc(Cl)cc1N(Cc1ccccc1)S2(=O)=O)Nc1ccccc1C(F)(F)F`, with inactive: -3.58%; and `Cc1c(C(=O)NCc2ccc(F)cc2)sc2nc(-c3ccc(F)cc3)cn12`, with inactive: -0.292%; and `O=C(CCn1cnc2onc(-c3ccc(F)cc3)c2c1=O)N1CCN(c2ccccc2F)CC1`, with inactive: 6.57%. Under `COC(=O)c1ccccc1NC(=O)Cn1c(=O)cc(C)c2c(C)nn(-c3cccc(Cl)c3C)c21` stands inactive: 10.3%. `CCOC(=O)C1CCCN(C(=O)c2ccc(NC(=O)c3nsc4ccccc34)cc2)C1` (configuration not stated): the activation is inactive: 3.13%. With `Cc1ccc2c(CC(=O)N(Cc3cccc(Cl)c3)C3CCS(=O)(=O)C3)coc2c1` (configuration not stated), the activation was inactive: -9.07%.

As for `Cc1ccc(C(=O)CC2(O)C(=O)N(Cc3ccccc3)c3ccccc32)c(C)c1` (configuration not stated), the activation was inactive: -12%. Then `CNS(=O)(=O)c1cn(CC(=O)N2CCN(c3ccccc3OC)CC2)cc1S(=O)(=O)NC`, with inactive: 0.0762%. Consider `COc1ccc(Cl)cc1NC(=O)Cn1cnc2sc(C)c(S(=O)(=O)N3CCN(c4ccccc4OC)CC3)c2c1=O`, for which the activation was inactive: -2.48%. Then `COc1cccc(N2CCN(Cc3cc(=O)oc4cc(C)ccc34)CC2)c1`, with inactive: -24.6%; and `Cc1ccc(-n2nnnc2CNC(=O)c2ccccc2C)cc1C`, with inactive: 15.3%. Under `Cc1ccc2c(c1)C(c1ccc(F)cc1)N(C(=O)c1cccc(C(F)(F)F)c1)CC(=O)N2` (configuration not stated) stands inactive: -17.1%. Under `N#Cc1cccc(NC(=O)CCNS(=O)(=O)c2ccc3c(c2)CCN3C(=O)C2CC2)c1` stands inactive: 15.6%. `CC(C)OCCCN1C(=O)c2[nH]nc(-c3ccccc3O)c2C1c1cccc(OCc2ccccc2)c1` (configuration not stated): the activation was inactive: 34.5%. Under `Cc1c2cnn(CC(=O)N3CCN(c4ccc(F)cc4)CC3)c(=O)c2c(C)n1Cc1ccccc1F` stands inactive: -11.2%. `O=C(Nc1nnc(S(=O)(=O)N2CCc3ccccc32)s1)c1ccccc1Cl`: the activation was inactive: 9.29%. Under `CCOC(=O)c1c(C)[nH]c(CCC(=O)NCCCN2CCN(c3ccccc3F)CC2)c1C` stands inactive: -19.8%; under `COc1ccc(-c2nc(Cn3c(=O)cc(C)c4c(C)nn(-c5ccccc5)c43)c(C)o2)c(OC)c1`, inactive: -16%. Then `CN(C)c1ccc(CNC(=O)Cn2ccc3cc(S(=O)(=O)N4CCCCCC4)ccc32)cc1`, with inactive: -13.2%. Under `Cc1cc(C)cc(-n2ccnc2SCC(=O)Nc2nc3ccc(C)cc3s2)c1` stands inactive: -0.454%; under `Cc1ccccc1C(c1c(C)n(C)n(-c2ccccc2)c1=O)c1c(C)n(C)n(-c2ccccc2)c1=O`, inactive: 15.7%; under `CC(C)CCNc1ncnc2c1cnn2-c1cccc(Cl)c1`, active: 91.6%. Take `O=C(Cc1ccc(Cl)cc1)Nc1ccc2nn(-c3ccccc3)nc2c1`: the activation was active: 84.5%. Then `COCCNC(=O)C(=O)NCC(c1cccnc1)N1CCN(c2ccccc2)CC1` (configuration not stated), with inactive: 6.74%. Then `Cc1ccc(-n2c(SCC(=O)Nc3c(C)cccc3C)nc(O)c(C)c2=O)cc1`, with inactive: -2.05%; and `CCC1CN(C(=O)N2CCC(C(=O)NCc3ccco3)CC2)c2ccccc2O1` (configuration not stated), with inactive: -9.71%. On to `CC(=O)c1cccc(NC(=O)N2CCC(CN3CCCCC3)CC2)c1`, for which the activation is inactive: -1.7%. Then `CC(C)c1ccc(NC(=O)Cn2c(=O)n(Cc3nc(-c4ccccc4)no3)c(=O)c3cc4c(cc32)OCO4)cc1`, with inactive: 20.8%. Under `CO[C@@]1(NC(=O)Cc2cccs2)C(=O)N2C(C(=O)O)=C(COC(N)=O)CS[C@@H]21` stands inactive: -0.493%; under `CCOc1ccccc1NC(=O)CN1C(=O)C2(SCC(=O)N2c2ccc(C)cc2)c2ccccc21` (configuration not stated), inactive: -9.19%; under `CCOc1ccc2c(c1)c(=O)c(C(=O)c1ccc(C)cc1)cn2Cc1ccccc1OC`, inactive: 7.16%. Under `CCS(=O)(=O)c1ncc(Cl)c(C(=O)N(Cc2ccccc2)c2ccc(OC)cc2)n1` stands inactive: -11.1%; under `Cc1cc(C)c(CN2C(=O)c3ccccc3S(=O)(=O)c3ccc(C(=O)OCC4CCCO4)cc32)c(C)c1` (configuration not stated), inactive: -7.82%. `Cc1ccc(-n2ncc3c(=O)n(Cc4ccccc4C)cnc32)cc1C`: the activation was inactive: -2.7%. Then `CCc1ccc(NC(=O)c2ccc(F)c(S(=O)(=O)NCCc3ccc(OC)c(OC)c3)c2)cc1`, with inactive: 27.3%; and `CCCN(Cc1cccs1)C(=O)Nc1ccc(F)c(Cl)c1`, with inactive: -8.22%; and `COc1cc(Cl)c(NC(=O)C(NS(=O)(=O)c2cccs2)C(C)C)c(OC)c1` (configuration not stated), with inactive: -11.4%. Under `COc1ccc(OC)c(Nc2c3c(nc4ccccc24)CCC3)c1` stands inactive: -9.92%; under `COc1cccc(Nc2sc(C(=O)c3ccc(Cl)cc3)c(N)c2C(=O)NCCc2ccc(OC)c(OC)c2)c1`, inactive: -99.5%; under `CS(=O)(=O)N1CCc2cc(C(=O)Nc3ccc(S(N)(=O)=O)cc3)ccc21`, inactive: -9.85%. Then `CCCSc1nnc2n(-c3cccc(C)c3)c(=O)c3c4c(sc3n12)CCCC4`, with inactive: -6.34%. In the case of `Cc1ccc(C)c(NC(=O)Cn2c(=O)n(Cc3ccc4c(c3)OCO4)c(=O)c3ccccc32)c1`, the activation was inactive: -16.5%.
